# About 2,200 (0.71%) of roughly 310,000 compounds showed an effect of 50% or more. Effects have a minus sign here. This is one part of the list.
# Target: human ether-à-go-go-related gene (hERG) potassium channel (human, UniProt Q12809)
# Assay: primary screen, population patch clamp on CHO cells stably expressing hERG
# Sequence of human ether-à-go-go-related gene (hERG) potassium channel (Q12809 whole entry, looked up): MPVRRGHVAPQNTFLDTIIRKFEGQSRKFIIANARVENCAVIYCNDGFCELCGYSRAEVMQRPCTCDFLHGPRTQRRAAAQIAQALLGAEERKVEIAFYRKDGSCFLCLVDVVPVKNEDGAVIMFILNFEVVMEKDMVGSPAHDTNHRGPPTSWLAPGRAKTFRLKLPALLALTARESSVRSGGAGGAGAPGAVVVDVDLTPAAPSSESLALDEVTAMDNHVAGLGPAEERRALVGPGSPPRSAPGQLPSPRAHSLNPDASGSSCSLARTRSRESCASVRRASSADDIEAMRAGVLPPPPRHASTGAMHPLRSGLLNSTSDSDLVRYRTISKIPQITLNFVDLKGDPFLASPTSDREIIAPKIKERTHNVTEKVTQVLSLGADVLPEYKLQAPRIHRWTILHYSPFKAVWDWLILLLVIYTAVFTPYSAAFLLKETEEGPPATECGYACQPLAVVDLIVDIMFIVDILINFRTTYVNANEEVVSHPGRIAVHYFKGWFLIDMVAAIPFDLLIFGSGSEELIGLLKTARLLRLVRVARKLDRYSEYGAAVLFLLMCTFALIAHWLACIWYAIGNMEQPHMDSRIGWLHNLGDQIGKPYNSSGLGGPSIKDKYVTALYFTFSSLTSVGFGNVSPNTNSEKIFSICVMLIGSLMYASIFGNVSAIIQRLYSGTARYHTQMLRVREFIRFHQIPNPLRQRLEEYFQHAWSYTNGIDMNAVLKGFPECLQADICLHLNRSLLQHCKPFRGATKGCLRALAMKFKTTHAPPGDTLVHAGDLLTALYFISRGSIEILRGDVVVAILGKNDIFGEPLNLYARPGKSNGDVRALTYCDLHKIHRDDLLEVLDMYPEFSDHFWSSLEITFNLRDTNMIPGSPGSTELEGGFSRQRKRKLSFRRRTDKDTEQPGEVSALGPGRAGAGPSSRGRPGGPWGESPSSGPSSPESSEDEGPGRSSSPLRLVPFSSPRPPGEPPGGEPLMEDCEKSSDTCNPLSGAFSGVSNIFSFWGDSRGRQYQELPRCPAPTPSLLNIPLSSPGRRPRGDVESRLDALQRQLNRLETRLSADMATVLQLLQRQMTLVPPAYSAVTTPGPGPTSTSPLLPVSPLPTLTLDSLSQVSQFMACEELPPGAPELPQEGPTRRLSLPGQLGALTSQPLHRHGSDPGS
row,SMILES,"hERG current change (%, negative = inhibition) at 1uM [%]"
1,Cc1cc(=O)[nH]c(SCC(=O)Nc2cccc(C(F)(F)F)c2)n1,9.5
2,Cc1cc(N)ccc1NC(=O)c1ccccc1,11.3
3,COc1ccc(NC(=O)c2nc[nH]c2C(=O)Nc2ccccc2C)cc1,3.49
4,CSCc1nc2sc(C(=O)Nc3nc(C)cs3)c(C)c2c(=O)[nH]1,-0.951
5,COCCOC(=O)C1=C(C)NC2=C(C(=O)CC(C)(C)C2)C1c1ccc2c(c1)OCO2 (stereo not drawn),8.04
6,C=CCSc1nsc(NC(=O)Nc2cccc(C(C)=O)c2)n1,13.6
7,CN(Cc1ccsc1)C(=O)CCc1nnc(Cc2c[nH]c3ccccc23)o1,7.16
8,CC(NC(=O)c1sc2ccccc2c1Cl)C1CCCO1 (stereo not drawn),-0.686
9,CC(=O)Oc1ccc(C2=NN(c3ccccc3)C(c3ccccc3)C2)cc1 (stereo not drawn),15.9
10,O=c1[nH]c(=O)n(C2CCCCC2)c(O)c1/C=N/N1CCCCC1c1cccnc1 (stereo not drawn),0.596
11,O=c1nc2n(c3ccc([N+](=O)[O-])cc13)CCCCC2,-5.01
12,Cc1ccc(C(=O)CC(Nc2ccc(F)cc2)c2ccccc2)cc1 (stereo not drawn),12.1
13,COc1ccc(Nc2nc(NCc3ccco3)nc(N/N=C/c3ccccc3Cl)n2)cc1,-6.58
14,CC(C)c1ccccc1NC(=O)C1C2C=CC(C2)C1C(=O)O (stereo not drawn),8.29
15,O=C(O)Cn1c(=O)n(Cc2ccccc2)c2ccccc21,19.5
16,O=C(CCN=C1NS(=O)(=O)c2ccccc21)OCC(=O)c1ccc(F)c(F)c1,12.7
17,CC(=O)Nc1ccc(NC(=O)COC(=O)c2ccccc2C(=O)c2ccccc2)cc1,0.45
18,CCOC(=O)C1(Cc2ccc(Cl)cc2)CCN(Cc2cnc(N)nc2)CC1,-60.6
19,COC(=O)CN1C(=O)[C@H]2[C@@H](c3ccc(C)o3)N3C(=O)CN(Cc4ccccn4)C(=O)[C@@]3(Cc3ccccc3)[C@H]2C1=O,16.9
20,Oc1ccc(NC(=S)Nc2ccc(F)cc2)cc1,14.3
21,CCn1c(SCC(=O)NC2CC2)nnc1-c1ccc(F)cc1,15.3
22,CCOC(=O)C1CCCN(C2CC(=O)N(c3cccc(C)c3)C2=O)C1 (stereo not drawn),3.29
23,CCN(CC)Cc1c(O)ccc2c(=O)c(Oc3ccccc3OC)coc12,2.19

row,SMILES,"hERG current change (%, negative = inhibition) at 1uM [%]"
1,O=S(=O)(c1cccc(C(F)(F)F)c1)N1CCN(C(=S)NCc2ccco2)CC1,25.7
2,O=C(NCc1ccc(F)cc1)c1cc(-c2ccco2)on1,6.43
3,CCSc1nnc(NC(=O)CSc2nnc(-c3c[nH]c4ccccc34)n2C)s1,9.94
4,O=C(Nc1ccccc1-c1nnn(CC(=O)N2CCOCC2)n1)c1ccccc1F,11.9
5,COCCNC(=O)[C@@H]1CSC2c3ccc(OC)c(OC)c3C(=O)N21 (stereo partly drawn),19.2
6,Cc1ccc(S(=O)(=O)/N=C(/Sc2ccccc2C(=O)O)c2ccccc2)cc1,16.5
7,O=C1CCC(C(=O)N2CCSCC2)CN1Cc1cccc(C(F)(F)F)c1 (stereo not drawn),12.5
8,CCOC(=O)C1=NOC(CNC(=O)c2ccccc2Cl)C1 (stereo not drawn),12.7
9,COc1ccc(N(C(C)C(=O)N/N=C/c2ccc(OC)c(OC)c2)S(C)(=O)=O)cc1 (stereo not drawn),17.3
10,O=C(/C=C/c1ccc2c(c1)OCO2)NCCSCc1c(Cl)cccc1Cl,5.99
11,CSc1nnc(C)c(=O)n1COC(=O)c1ccc([N+](=O)[O-])cc1,-1.84
12,OCCN1CCN(c2ncnc3sc4c(c23)CCCC4)CC1,4.42
13,Nc1ccc(S(=O)(=O)Nc2nccc(/C=C/c3ccc([N+](=O)[O-])cc3)n2)cc1,7.5
14,Cc1ccccc1OCC(=O)Nc1cc(S(=O)(=O)N2CCOCC2)ccc1N1CCCC1,-6.9
15,CCC(C)NC(=O)C1CCCN(S(=O)(=O)c2ccc(-n3cnnn3)cc2)C1 (stereo not drawn),7.44
16,CCOC(=O)c1cccc(N/C=C/C(=O)c2ccc(OC)c(OC)c2)c1,14.7
17,COc1cc(C(=O)N/N=C/C2CC=CCC2)cc(OC)c1OC (stereo not drawn),4.88
18,COc1cc(C)nc(Oc2ccc(/C=N/O)cc2)n1,6.8
19,CCOCc1nnc(NC(=O)c2ccc3c(c2)OCO3)s1,12.4
20,O=C(CSc1n[nH]c(-c2cccnc2)n1)Nc1cccc(Cl)c1,16.5
21,O=C(c1c(F)cccc1F)N1CCN=C1SCc1ccccc1,6.87
22,O=C(NCCN1CCOCC1)c1ccc(CS(=O)(=O)Cc2ccccc2F)o1,3.24
23,COc1ccc(NC(=O)CSc2nc(O)cc(=O)n2-c2ccc(OC)cc2)cc1,14.3

row,SMILES,"hERG current change (%, negative = inhibition) at 1uM [%]"
1,Cc1cccc(C)c1OCc1cc(C(=O)NCC2CCCCC2)no1,14.5
2,COCCCn1c(SCC(=O)OC2CCCCC2)nnc1-c1cccs1,5.56
3,COc1ccc(C(=O)NNC(=O)C(=O)N2CCCCC2)cc1OC,51.1
4,COc1ccc2oc(=O)c(C(=O)NC(C)c3ccccc3)cc2c1 (stereo not drawn),3.52
5,Cc1ccc(S(=O)(=O)Nc2ccc3c(c2)nc(C)n3C)cc1,7.92
6,COc1cc(S(=O)(=O)Nc2ccc(C(=O)NCC(=O)O)cc2)ccc1NC(C)=O,4.32
7,N#Cc1nc(-c2ccccc2Cl)oc1N1CCOCC1,7.45
8,CCCCOc1ccccc1N,19.1
9,CCc1cccc2c(C(=O)CN3C(=O)NC(C)(c4cccc5ccccc45)C3=O)c[nH]c12 (stereo not drawn),15.5
10,O=C(NC1CCCN(Cc2ccc(Cl)cc2)C1)c1ccnc(Cl)c1 (stereo not drawn),1.36
11,CCOc1ccc2oc(=O)cc(CN3CCOCC3)c2c1,7.89
12,COc1ccc(NS(=O)(=O)c2ccc(NC(=O)c3ccccn3)cc2)cc1,5.62
13,COCC(C)NC(C(=O)Nc1ccc(C)c(Cl)c1)c1ccccc1 (stereo not drawn),4.35
14,COc1ccccc1NC(C)C(=O)N/N=C/c1cccs1 (stereo not drawn),9.31
15,COc1ccc(Cl)cc1NC(=O)CSc1ncnc2c1oc1ccccc12,16.9
16,Cc1cccc(C)c1NC(=O)c1cc(S(=O)(=O)N2CCc3ccccc32)cn1C,5.37
17,Cc1c(C(=O)NCCc2ccccc2)oc2ccc(S(=O)(=O)N3CCOCC3)cc12,3
18,O=C(Cn1cnc(Cl)c1Cl)c1ccccc1,11.8
19,CN1N=C(C(F)(F)F)CC1=O,5.29
20,O=C(Nc1ccc(N2CCOCC2)cc1)c1cccc(S(=O)(=O)N2CCC(Cc3ccccc3)CC2)c1,3.12
21,O=C(NCCSCc1c(F)cccc1Cl)c1ccco1,7.05
22,CCN(CC)C(=O)COc1ccc(/C=C(\C#N)S(=O)(=O)c2ccccc2)cc1OC,5.6
23,CC(CCOS(N)(=O)=O)c1ccccc1 (stereo not drawn),12.8

row,SMILES,"hERG current change (%, negative = inhibition) at 1uM [%]"
1,CC(C)c1ccccc1NCC(=O)N1CCN(Cc2ccccc2)CC1.Cl,-1.39
2,COCCCNCCCOc1ccc(Cl)cc1Br,1.29
3,O=C(c1csc2ccccc12)n1cccn1,9.92
4,CCCN1CCC(N2CCN(c3ccc([N+](=O)[O-])cc3)CC2)CC1,-62.7
5,CCCCC(=O)Nc1sc2c(c1C(=O)OCC)CCC(C=O)=C2Cl,17
6,COc1cccc(-c2cc3nc(-c4ccccc4)cc(=O)n3[nH]2)c1,6.7
7,COc1ccc(NC(=S)NNc2ccc(S(=O)(=O)Nc3ccccc3C(=O)O)cc2[N+](=O)[O-])cc1,9.69
8,O=C(NC(=S)NCCCN1CCOCC1)c1ccco1,-2.56
9,COC(=O)C(C#N)C(c1cccnc1)c1c(C)[nH][nH]c1=O (stereo not drawn),9.74
10,O=C(NC1CCCCCC1)c1c(O)nc2sccn2c1=O,3.99
11,O=C(Nc1ccc(Cl)c(Cl)c1)N1CCCCCC1,2.3
12,S=C(Nc1ccccc1)N(Cc1ccccc1)Cc1ccncc1,-0.754
13,COc1ccc(NC(=S)NC(NC(=O)/C=C/c2ccccc2)C(Cl)(Cl)Cl)cc1 (stereo not drawn),13.5
14,O=C(Nc1ccnn1C1CCN(Cc2c[nH]c3ccccc23)CC1)c1ccccc1,-7.62
15,Cc1cccc(C(=O)O/N=C(\N)c2ccc(Cl)cc2)c1,3.91
16,COc1ccc(NC(=O)C(C)N2C(=O)c3ccccc3C2=O)c(OC)c1 (stereo not drawn),5.5
17,COCCNS(=O)(=O)c1ccc2c(c1)n(C)c(=O)n2C,5.04
18,CS(=O)(=O)N(CC(=O)N1CCc2ccccc2C1)c1ccc(Br)cc1,13.4
19,COCCNc1nc2c(S(=O)(=O)c3cc(C)ccc3C)nnn2c2ccccc12,8.32
20,O=C(C1=NN(c2ccccc2)C2C(=O)N(c3cccc(Cl)c3)C(=O)C12)c1ccccc1 (stereo not drawn),4.74
21,O=C(CS(=O)(=O)c1ccccc1)Nc1nc(-c2ccc(F)cc2)cs1,11.2

# — PMC4336329 (PLoS ONE, 2015)
